{"source": "PubChem BioAssay AID504832", "about": "(National Center for Advancing Translational Sciences (NCATS), 2011)", "note": "Values joined by “and” are separate entries in the source; they are usually repeats but may differ in a detail not shown here. Equal entries are not always repeated. The whole screen tested about 310,000 compounds, of which about 18,000 (5.8%) were called active. The shares of active, inactive and inconclusive entries below differ from those in the screen. Calls follow the shape of the dose curve; as a rule, active = well fitted inhibition curve with a large enough effect; inconclusive = small, poorly fitted or top-dose-only effect, or another doubt; inactive = no such curve, though single readings can be large or run the other way. No potency is given beside an inconclusive call; the fits are too rough. % is scaled to controls: 0 for no effect and ±100 for the full control effect; potency is read from the fitted curve at half-maximal effect; tags tell the direction and shape of the fitted curve."}
{"test": "Primary qHTS for delayed death inhibitors of the malarial parasite plastid, 48 hour incubation", "settings": "P. falciparum luciferase growth in erythrocytes; series mostly up to 28.7 µM; activity change, negative = inhibition: at the top concentration", "method_in_brief": "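Luminescence readout; reporter = integrated firefly luciferase in P. falciparum. RBC culture at 2% hematocrit, 0.1% parasitemia final, 37 C/5% CO2; decreased signal taken as growth inhibition.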"}
{"smiles": "C/C(=N\\Nc1nc2ccccc2[nH]1)c1ccccn1", "Potency": "active: 2.94 µM"}
{"smiles": "COc1ccc(C(CNC(=O)c2oc3ccc(OC)cc3c2C)N2CCCC2)cc1", "note": "(centres undefined)", "Potency": "active: 8.28 µM"}
{"smiles": "O=C(NCc1ccco1)Oc1ccccc1", "activity change, negative = inhibition": "inactive: 13.7%"}
{"smiles": "Cc1ccccc1CSc1nc2ccccc2c(=O)n1C", "Potency": "active: 9.28 µM"}
{"smiles": "CC(C)(C)c1cc(/C=N/NC(=O)C[n+]2ccccc2)cc(C(C)(C)C)c1O", "Potency": "inconclusive [inhibitor, single point]"}
{"smiles": "O=C(Nc1ccc(-n2cccc2)cc1)C1CC1", "Potency": "active: 11.7 µM"}
{"smiles": "Cc1cc(Br)ccc1OCCCCN1CCCCC1", "Potency": "inconclusive [inhibitor, single point]"}
{"smiles": "Cc1ccc(-c2cnc(N)n2C)cc1C", "Potency": "inconclusive [inhibitor, single point]"}
{"smiles": "Cc1nn2c(-c3ccncc3)ccnc2c1Cl", "Potency": "inconclusive [inhibitor, single point]"}
{"smiles": "COCCOc1ccc(C(F)(F)F)cc1NC(=O)CN1C(=O)NC2(CCc3ccccc32)C1=O", "note": "(centres undefined)", "Potency": "inconclusive [inhibitor, single point]"}
{"smiles": "CCC(=O)N1CCc2cc(S(=O)(=O)NC(C(=O)NCc3ccc(F)cc3)C(C)C)ccc21", "note": "(centres undefined)", "Potency": "inconclusive [inhibitor, single point]"}
{"smiles": "O=c1oc2c(CN3CCOCC3)c(O)ccc2c2ccccc12", "Potency": "inconclusive [inhibitor, single point]"}
{"smiles": "CC(C)(C)NC(=O)CSc1nc(Cc2ccccc2)nc2ccccc12", "activity change, negative = inhibition": "inactive: -16.7%"}
{"smiles": "CCCCC(CC)C(=O)Nc1ccc(Nc2ccccc2)cc1", "note": "(centres undefined)", "Potency": "inconclusive [inhibitor, single point]"}
{"smiles": "CC(C)(C)NS(=O)(=O)c1cccc(S(=O)(=O)c2cccc(S(=O)(=O)NC(C)(C)C)c2)c1", "Potency": "inconclusive [inhibitor, single point]"}
{"smiles": "COc1ccccc1N1CCN(Cc2nc3ccccc3c(=O)n2CC(C)=O)CC1", "Potency": "inconclusive [inhibitor, partial curve, poor fit]"}
{"smiles": "CCN(C(=O)C(=O)c1c[nH]c2ccccc12)c1ccccc1", "activity change, negative = inhibition": "inactive: 28.1%"}
{"smiles": "Cc1c(C(=O)OC2CCCCC2)sc2nc[nH]c(=O)c12", "Potency": "inconclusive [inhibitor, single point]"}
{"smiles": "Cc1cc2c(cc1C)NC(c1c(C)n(C)n(-c3ccccc3)c1=O)C1=C(CC(C)(C)CC1=O)N2", "note": "(centres undefined)", "Potency": "inconclusive [inhibitor, single point]"}
{"smiles": "CCNCC(O)c1cccc(O)c1", "note": "(centres undefined)", "activity change, negative = inhibition": "inactive: 23%"}
{"smiles": "Brc1ccc(N=C/C=C/C=C/Nc2ccc(Br)cc2)cc1", "Potency": "inconclusive [inhibitor, partial curve, poor fit]"}
{"smiles": "CC(C)C1O/C(=N/C(=O)Nc2ccc(Cl)c(Cl)c2)NC1=O", "note": "(centres undefined)", "Potency": "active: 11.7 µM"}
{"smiles": "O=C(O)C[C@]1(C(=O)Nc2ccc(F)cc2)CC(/C=C/c2ccccc2)=NO1", "activity change, negative = inhibition": "inactive: 0.702%"}
{"smiles": "COc1cccc(CNC(=O)C(=O)NCCC2CCCCN2S(=O)(=O)c2cccs2)c1", "note": "(centres undefined)", "Potency": "inconclusive [inhibitor, partial curve]"}
{"smiles": "CCc1ccccc1NC(=S)NC1CC2CCC(C1)N2Cc1ccco1", "note": "(centres undefined)", "activity change, negative = inhibition": "inactive: -3.49%"}
{"smiles": "Cc1ccccc1-n1c(SCc2cc(=O)n3ccccc3n2)nc2[nH]ncc2c1=O", "Potency": "inconclusive [inhibitor, partial curve, poor fit]"}
{"smiles": "Cc1ccc(C(=O)C(C)OC(=O)CCN2C(=O)C3C4C=CC(C5CC45)C3C2=O)cc1", "note": "(centres undefined)", "activity change, negative = inhibition": "inactive: 13.2%"}
{"smiles": "O=C(COc1cccnc1[N+](=O)[O-])Nc1ccc(Cl)c(S(=O)(=O)N2CCOCC2)c1", "Potency": "inconclusive [inhibitor, single point]"}
{"smiles": "CC(C)CCn1cnc2c(cnn2-c2ccc(Cl)cc2)c1=O", "Potency": "inconclusive [inhibitor, single point]"}
{"smiles": "CC(NC(=O)CN1CCN(CC(=O)Nc2ccccc2Cl)CC1)c1ccc(Br)cc1", "note": "(centres undefined)", "Potency": "inconclusive [inhibitor, single point]"}
{"smiles": "Cc1ccc(N(C(=O)CCC(=O)Nc2nccs2)C(C(=O)NC(C)(C)C)c2ccc(O)cc2)cc1", "note": "(centres undefined)", "Potency": "inconclusive [inhibitor, single point]"}
{"smiles": "CCCCc1nc2ccccc2c(=O)n1-c1ccccc1O", "Potency": "inconclusive [inhibitor, single point]"}
{"smiles": "Cc1[nH]n(-c2ccccc2)c(=O)c1C(=O)c1ccc([N+](=O)[O-])cc1", "activity change, negative = inhibition": "inactive: 15.1%"}
{"smiles": "Cc1cc(C)c(C#N)c(SCS(=O)Cc2ccc(Cl)cc2)n1", "note": "(centres undefined)", "Potency": "inconclusive [inhibitor, single point]"}
{"smiles": "C=CCn1c(O)c2ccc(C(=O)N=NC(=O)COc3ccc(OC)cc3)cc2c1O", "activity change, negative = inhibition": "inactive: 23.4%"}
{"smiles": "C=CCn1c(=O)c(C(=O)NCc2ccccc2Cl)c(O)c2ccccc21", "Potency": "inconclusive [inhibitor, partial curve, poor fit]"}
{"smiles": "CC(NC(=O)C1=CC=CN2CCS(=O)(=O)N=C12)c1ccc(Cl)cc1Cl", "note": "(centres undefined)", "activity change, negative = inhibition": "inactive: -28.3%"}
{"smiles": "O=C(c1cccc(S(=O)(=O)Nc2ccc(Br)cc2)c1)N1CCCC1", "Potency": "inconclusive [inhibitor, partial curve, poor fit]"}
{"smiles": "O=C(O/N=C(\\c1ccccc1)c1ccccn1)c1cccc2ccccc12", "activity change, negative = inhibition": "inactive: 16.5%"}
{"smiles": "COc1ccc(-c2cn(-c3ccc(SC(F)F)cc3)c3[n+]2CCC3)cc1OC", "Potency": "inconclusive [inhibitor, full curve, poor fit]"}
{"smiles": "O=c1cc(-c2ccccc2)nc(SCc2ccc(F)cc2)[nH]1", "activity change, negative = inhibition": "inactive: -7.27%"}
{"smiles": "CCc1nc2ccccc2c(=O)n1NC(=O)c1c(O)c2ccccc2[nH]c1=O", "Potency": "inconclusive [inhibitor, single point]"}
{"smiles": "COc1ccc2sc(-c3ccccc3OC)c(-c3ccc(OC)c(F)c3)c2c1", "Potency": "inconclusive [inhibitor, single point]"}
{"smiles": "Nc1nc(Nc2ccccc2Br)nc(C(F)(F)F)n1", "activity change, negative = inhibition": "inactive: 46.7%"}
{"smiles": "O=C(Nc1ccccc1N1CCCCC1)C1CCN(S(=O)(=O)c2ccccc2C(F)(F)F)CC1", "Potency": "active: 9.28 µM"}
{"smiles": "COc1ccccc1OCC(=O)O", "Potency": "inactive"}
{"smiles": "COc1cc2cc(C)c(SCC(=O)N3CCN(C(=O)c4ccco4)CC3)nc2cc1OC", "Potency": "inconclusive [inhibitor, partial curve, poor fit]"}
{"smiles": "O=C(NNc1c2ccccc2nc2ccccc12)c1ccc(O)cc1O", "Potency": "inconclusive [inhibitor, single point]"}
{"smiles": "O=c1c2c3c(sc2n(CCN2CCCC2)c(=O)n1Cc1ccco1)CCCCC3", "Potency": "inconclusive [inhibitor, single point]"}
{"smiles": "COc1ccc2c(C)c(CC(=O)N3C[C@H]4C[C@@H](C3)c3cccc(=O)n3C4)c(=O)oc2c1OC", "Potency": "inconclusive [inhibitor, full curve, poor fit]"}
{"smiles": "CC(C)CNc1ncnc2c1cnn2Cc1ccc(Cl)cc1", "Potency": "inconclusive [inhibitor, full curve, poor fit]"}
{"smiles": "Cc1ccc(-c2cc(C(F)F)n3ncc(C(=O)Nc4c(C)nn(Cc5c(Cl)cccc5Cl)c4C)c3n2)cc1", "Potency": "inconclusive [inhibitor, full curve]"}
{"smiles": "COc1ccc(C(=O)C2CCCN(C(=O)c3cccc(Cn4cccn4)c3)C2)cc1F", "note": "(centres undefined)", "Potency": "inconclusive [inhibitor, single point]"}
{"smiles": "COCCNC(=O)c1ccccc1NC(=O)Cc1ccccc1[N+](=O)[O-]", "Potency": "inconclusive [inhibitor, full curve]"}
{"smiles": "COc1ccc(CCn2c(=N)c(C(=O)NCC3CCCO3)cc3c(=O)n4ccccc4nc32)cc1OC", "note": "(centres undefined)", "Potency": "inconclusive [inhibitor, single point]"}
{"smiles": "O=C(N[C@@H]1CCC(=O)N(CC[C@H](Sc2ccccc2)c2ccccc2)CC1)OCc1ccccc1", "activity change, negative = inhibition": "inactive: -1.93%"}
{"smiles": "Cc1nn(CC(C)C(=O)N2CCN(S(=O)(=O)c3ccc(Cl)cc3)CC2)c(C)c1C", "note": "(centres undefined)", "Potency": "inconclusive [inhibitor, partial curve]"}
{"smiles": "CCOC(=O)COc1ccc(/C=C2/SC(=Nc3ccccc3)N(Cc3cccnc3)C2=O)cc1OC", "Potency": "inconclusive [inhibitor, single point]"}
{"smiles": "Cc1nn(CC(=O)Nc2ccc(N3CCOCC3)cc2)c(C)c1Cl", "activity change, negative = inhibition": "inactive: 15.1%"}
{"smiles": "Brc1ccc(-c2ccc(CNCc3ccccn3)o2)cc1", "activity change, negative = inhibition": "inactive: -31.7%"}
{"smiles": "O=S(=O)(NC1CCCCC1)c1ccc(Cl)s1", "activity change, negative = inhibition": "inactive: 18.3%"}
{"smiles": "O=C(CCCN1C(=O)NC2(CCCC2)C1=O)Nc1cccc(S(=O)(=O)N2CCOCC2)c1", "Potency": "inconclusive [inhibitor, single point]"}
{"smiles": "CCOc1ccc(CN(CC)C(=O)Cc2c[nH]c3ccccc23)cc1OC", "Potency": "inconclusive [inhibitor, single point]"}
{"smiles": "Cc1nn(C)cc1CN(C)C(=O)c1nn2c(c1Br)NC(c1cccs1)CC2C(F)(F)F", "note": "(centres undefined)", "Potency": "active: 13.1 µM"}
{"smiles": "Cc1ccccc1-c1ccc(=O)n(CC(=O)Nc2ccc(N3CCOCC3)cc2)n1", "activity change, negative = inhibition": "inactive: 7.13%"}
{"smiles": "COc1ccc(N2CCN(C(CNC(=O)C(=O)NCCc3c[nH]c4ccccc34)c3ccco3)CC2)cc1", "note": "(centres undefined)", "Potency": "inconclusive [inhibitor, partial curve, poor fit]"}
{"smiles": "COCC(=O)O[C@]1(CCN(C)CCCc2nc3ccccc3[nH]2)CCc2cc(F)ccc2[C@@H]1C(C)C", "Potency": "active: 9.28 µM and active: 1.51 µM"}
{"smiles": "CCCCCCN(C(=O)CCCCCN1C(=O)NC(c2ccc(C3CCCCC3)cc2)C(C(=O)OCc2ccccc2)=C1C)C(C(=O)NCCCC)c1ccc(OCC(=O)OC)c(C(=O)OC)c1", "note": "(centres undefined)", "Potency": "active: 2.94 µM"}
{"smiles": "O=C(O)CCCCC1CCSS1", "note": "(centres undefined)", "Potency": "inactive"}
